Among the data in PubChem BioAssay AID1745853 (National Center for Advancing Translational Sciences (NCATS), 2022) are activity change, negative = inhibition values, retold here.

What all share (experiment): Primary Screen for Target Class Profiling of Small Molecule Inhibitors of Methyltransferases
Assay [1] has as its target Glycine N-methyltransferase (Homo sapiens) (UniProt Q14749). The conditions noted are these: purified enzyme, MTase-Glo SAH luminescence; measured here: GNMT inhibition; at 40 µM; stronger effect = lower value. The method in brief:
(§1)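 Each enzyme was assayed with SAM and its substrate. SAH formation detected by MTase-Glo luminescence; single-point 40 uM screen[…].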

Assay [2] deals with Guanidinoacetate N-methyltransferase (Homo sapiens) (UniProt Q14353). Particulars: purified enzyme, MTase-Glo SAH luminescence; measured here: GAMT inhibition; at 40 µM; stronger effect = lower value. In short, it runs like this:
as §1

The target of assay [3] is Histamine N-methyltransferase (Homo sapiens) (UniProt P50135). Particulars: purified enzyme, MTase-Glo SAH luminescence; measured here: HNMT inhibition; at 40 µM; stronger effect = lower value. In short, it runs like this: as §1
Assay [4] addresses Nicotinamide N-methyltransferase (Homo sapiens) (UniProt P40261). The conditions noted are these: purified enzyme, MTase-Glo SAH luminescence; measured here: NNMT inhibition; at 40 µM; stronger effect = lower value. The method in brief:
as §1

The target of assay [5] is Phenylethanolamine N-methyltransferase (Homo sapiens) (UniProt P11086). Particulars: purified enzyme, MTase-Glo SAH luminescence; measured here: PNMT inhibition; at 40 µM; stronger effect = lower value. The method in brief:
as §1

Where “and” joins values, the source holds several entries; their conditions need not be identical. Identical values can stand only once. This is one part of the list. Shown are side measurements of this screen, not its main read-out; they come without a call. Peptide text beside a SMILES is read from it. * marks the point of attachment. Hexanoyl = CCCCCC(=O)*
% is set by controls: 0 for no effect and ±100 for the full control effect.

Turning to `Nc1ncn([C@@H]2O[C@H](CO)[C@@H](O)[C@H]2O)c(=O)n1`, the activity change, negative = inhibition in assay [1] was 2.04%; in assay [2], 10.4%; in assay [3], 5.29%; in assay [4], -2.62%; in assay [5], 8.06%.

Turning to `CCc1nc(C)c(C(=O)N2CC[C@@](O)(COC)C(C)(C)C2)s1`, the activity change, negative = inhibition in assay [1] was -5.47%; in assay [2], -2.25%; in assay [3], -0.337%; in assay [4] it was -1.37%; in assay [5] it was -1.29%.

`O=C(NC1CCCC1)N[C@@H]1C[C@H](Cn2cc(C3CC3)nn2)[C@@H](O)[C@H]1O`: the activity change, negative = inhibition is -0.319% in assay [1]; 0.29% in assay [2]; -2.18% in assay [3]; -3.78% in assay [4]; -4.38% in assay [5].

Consider `CCCNC(C)C(=O)Nc1ccccc1C` (stereo not given), for which the activity change, negative = inhibition in assay [1] is 3.19%; in assay [2], 9.4%; in assay [3], 4.2%; in assay [4] it was -3.04%; in assay [5], 7.44%.

Regarding `COc1ccc(CN(CCN(C)C)c2ccccn2)cc1`, the activity change, negative = inhibition is 5.67% in assay [1]; 12.8% in assay [2]; -2.78% in assay [3]; -2.36% in assay [4]; 0.501% in assay [5].

For the compound `CC(=O)Nc1cccc2c1c(Sc1ccc(Cl)cc1)c(C)n2CC(=O)O`, the activity change, negative = inhibition in assay [1] is -9.65%; in assay [2] it was -17.6%; in assay [3], 0.834%; in assay [4], -29%; in assay [5], -15.7%.

As to `COc1ccccc1CC(=O)Nc1cccn2nc(C(C)C)nc12`, the activity change, negative = inhibition in assay [1] is -7.03%; in assay [2] it was -0.697%; in assay [3], -2.34%; in assay [4], -6.32%; in assay [5], 1.61%.

Consider `COC(=O)[C@@]1(c2ccc(C)cc2)C[C@H]1CN1CCC(O)(c2ccccc2)CC1`, for which the activity change, negative = inhibition in assay [1] was 1.54%; in assay [2] it was -8.45%; in assay [3] it was -10.7%; in assay [4], -16.1%; in assay [5], -11.9%.

`O=C(c1cccs1)N1CC[C@H]2COC(=O)N2c2cc(F)ccc2C1`: the activity change, negative = inhibition is -0.374% in assay [1]; -3.4% in assay [2]; -0.158% in assay [3]; -5.46% in assay [4]; 0.592% in assay [5].

`CCc1ccc(N2C(=O)c3cc4sc(CC)cc4n3CC2(C)C(=O)NC2CCCCC2)cc1` (stereo not given): the activity change, negative = inhibition is -0.771% in assay [1]; 5.57% in assay [2]; -3.46% in assay [3]; 0.566% in assay [4]; -4.61% in assay [5].

As for `CNc1ncnc2c1ncn2[C@H]1C[C@H](OP(=O)(O)O)[C@@H](COP(=O)(O)O)O1`, the activity change, negative = inhibition in assay [1] is 5.82%; in assay [2], 11.7%; in assay [3], 5.82%; in assay [4] it was -0.3%; in assay [5] it was 9.04%.

On to `O=C(CC1CCCC1)N1CC2CC(C1)[C@H]1CCCC(=O)N1C2` (stereo not given in full), for which the activity change, negative = inhibition in assay [1] was -1.32%; in assay [2], 3.78%; in assay [3] it was 1.65%; in assay [4] it was -2.3%; in assay [5], 13.7%.

As to `O=S(=O)(Cc1ccccc1)N1CCCC(Cc2noc(-c3cccnc3)n2)C1` (stereo not given), the activity change, negative = inhibition in assay [1] was -4.63%; in assay [2] it was -6.46%; in assay [3], -1.94%; in assay [4] it was -5.26%; in assay [5], -3.57%.

For the compound `Cc1ccc(Cl)cc1N1CCN(S(=O)(=O)c2ccc3[nH]c(=O)[nH]c3c2)CC1`, the activity change, negative = inhibition in assay [1] is 15.6%; in assay [2], 0.578%; in assay [3], 10.9%; in assay [4], 2.56%; in assay [5], 7.74%.

`Cc1nc(NCCn2ncc3ccccc3c2=O)cc(C2CC(O)C2)n1` (stereo not given): the activity change, negative = inhibition in assay [1] is -3.6%; in assay [2], -1.93%; in assay [3], -1.17%; in assay [4], -7.24%; in assay [5], -0.194%.

Turning to `O=C(Nc1ccc(OC(F)(F)F)cc1)c1sccc1NCc1ccnc2ccccc12`, the activity change, negative = inhibition in assay [1] was -9.08%; in assay [2], -3.15%; in assay [3] it was 1.55%; in assay [4], -25.1%; in assay [5], -13.5%.

`O=C(Cn1nc2n(CCc3ccccc3)c(=O)c3ccccc3n2c1=O)Nc1ccc(F)cc1`: the activity change, negative = inhibition in assay [1] is 8.68%; in assay [2], 1.98%; in assay [3], 11.4%; in assay [4], 9.5%; in assay [5], 8.76%.

Regarding `CC(C)(O)c1ccc2c(c1)C(O)C[C@H]1[C@](C)(C(=O)O)CCC[C@]21C` (stereo not given in full), the activity change, negative = inhibition in assay [1] was 0.95%; in assay [2] it was 2.04%; in assay [3], 6.41%; in assay [4], -6.68%; in assay [5], -1.05%.

For `CN1C(=O)c2cc(C(=O)NCCN3CCOCC3)nn2CC1(C)C(=O)NC1CCCCCC1` (stereo not given), the activity change, negative = inhibition was 6.5% in assay [1]; 0% in assay [2]; 6.25% in assay [3]; 3.19% in assay [4]; 2.5% in assay [5].

On to `COc1cc(/C=C/C(=O)N2CCN(CC(=O)N3CCCC3)CC2)cc(OC)c1OC`, for which the activity change, negative = inhibition in assay [1] is 2.18%; in assay [2], -1.67%; in assay [3], 0.94%; in assay [4], -10.9%; in assay [5], -2.58%.

Take `CC(C)C1c2cccn2CCN1C(=O)Nc1cc(F)ccc1F` (stereo not given): the activity change, negative = inhibition in assay [1] was 4.32%; in assay [2] it was 1.04%; in assay [3], -0.406%; in assay [4], 0.672%; in assay [5], 2.15%.

In the case of `CCCCCC(=O)N1CCC[C@H]1C(=O)N[C@@H](Cc1ccc(O)cc1)C(=O)OC` (Hexanoyl-Pro-Tyr-OMe), the activity change, negative = inhibition was -7.42% in assay [1]; -15.4% in assay [2]; -2.31% in assay [3]; -18.6% in assay [4]; -13.1% in assay [5].

Consider `Cc1cccc(CNC(=O)C2(C)Cn3cnc(C(=O)N4CCCC4)c3C(=O)N2C2CC2)c1` (stereo not given), for which the activity change, negative = inhibition came out at 4.39% in assay [1]; 0.97% in assay [2]; 4.19% in assay [3]; 2.15% in assay [4]; 3.89% in assay [5].

As for `COC(=O)[C@H](O)[C@H]1C(C)(C)[C@H](OC(=O)C(C)C)[C@@]2(O)C(=O)[C@]1(C)C1CC[C@]3(C)C(CC(=O)O[C@H]3c3ccoc3)[C@]13O[C@@H]32` (stereo not given in full), the activity change, negative = inhibition is 0% in assay [1]; -7.95% in assay [2]; 1.3% in assay [3]; -20% in assay [4]; 1.05% in assay [5].

On to `C/C=C1/[C@H](O[C@@H]2O[C@H](CO)[C@@H](O)[C@H](O)[C@H]2O)OC=C(C(=O)OC)[C@H]1CC(=O)OCCc1ccc(O)c(O)c1`, for which the activity change, negative = inhibition in assay [1] is -2.37%; in assay [2], -2.72% and 8.85%; in assay [3], 7.34%; in assay [4] it was -16.3% and -8.62%; in assay [5] it was -12.8% and 0.127%.

Consider `CC1(C(=O)NC2CCCCC2)Cn2nc(-c3ccco3)cc2C(=O)N1Cc1ccc(F)cc1` (stereo not given), for which the activity change, negative = inhibition in assay [1] was -13.7%; in assay [2] it was -11.9%; in assay [3] it was -5.28%; in assay [4], -14.2%; in assay [5] it was -9.42%.

Regarding `Cc1ncsc1CN(Cc1ccccc1)C(=O)c1cn(CCC2CCCCC2)nn1`, the activity change, negative = inhibition was -5.98% in assay [1]; 4.03% in assay [2]; -0.883% in assay [3]; -14.9% in assay [4]; 6.21% in assay [5].

In the case of `CC(C)OCCCNC(=O)c1cc2n(n1)CC(C)(C(=O)NC1CCCCC1)N(C)C2=O` (stereo not given), the activity change, negative = inhibition in assay [1] is 8.11%; in assay [2], 5.86%; in assay [3] it was 5.28%; in assay [4] it was 5.79%; in assay [5], 1.36%.
